# According to paper PMC12040169 (PLOS Biology, 2025):
# The other results are listed elsewhere or left out.
# Tested on: T1, C. trachomatis L2/434/Bu expressing GFP (CTL2-GFP)
# T1 construct: L2/434/Bu GFP intracellular growth in HeLa cells
# Parameters: species or system HeLa; C. trachomatis total inclusion area by high-content imaging, normalised to DMSO
# Conditions: total inclusion area; 28.5 h, 10 µM; inhibitor
# In short: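 Imaging read-out: GFP inclusions and Hoechst nuclei captured by high-content imaging after fixation. Inclusion area/number = chlamydial growth; nuclei count = host cell viability. MIC calculated per earlier method.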
row,Structure (SMILES),% of control remaining
1,c1ccc2[nH]c(NCCN3CCOCC3)nc2c1 [CBK268791],96.9323
2,Cc1ccc(OCc2ccc(Cl)s2)c(Br)c1 [CBK002840],56.4468
3,O=C(Nc1cc(N2CCNCC2)ncn1)c1cnc2ccccc2c1 [CBK004209T],95.7385
4,COc1ccc(Cn2nc(NS(=O)(=O)c3cn(C)cn3)c3ccccc32)cc1 [CBK048143],82.5189
5,CCNCc1cc2c(C)nn(-c3ccc(F)cc3)c2[nH]c1=O [CBK283118],71.5117
6,O=C(O)COc1ccc(NC(=O)CSCc2ccc(Cl)cc2Cl)cc1 [CBK131700],95.4704
7,Cc1[nH]c2ccc(C(=O)N(Cc3ccccc3)C3CC3)cc2c1C [CBK297913],80.2622
8,COc1ccc2c(=O)c3c(oc2c1)C(=O)N(CCN(C)C)C3c1ccccn1 (centres unmarked) [CBK287781],89.4127
9,Cc1cc(C)c2c(c1)-c1c(ssc1=S)C(C)(C)N2C(=O)CSc1nnc[nH]1 [CBK263038],85.7489
10,COc1ccc2[nH]c3c(c2c1)CCOC31CCN(C(=O)Nc2ccc(C(C)C)cc2)CC1 [CBK047154],88.0335
11,CC(O)CN1CCN(c2nc(-c3ccncc3)nc3c2CCC3)CC1 (centres unmarked) [CBK304971],34.1287
12,Cn1c(=N)n(CC(=O)O)c2ccccc21 [CBK262926B],103.507
13,COCc1ccc(-c2nccnc2NS(=O)(=O)c2c(C)noc2C)cc1 [CBK049656],78.4072
14,Cc1nccn1C(=O)NC1CCCCC1 [CBK019187],110.064
15,Cc1noc(CN2CCN(CCc3ccc4c(c3)CCO4)CC2)n1 [CBK305208],54.7863
16,COc1cc(CNn2cnnc2S)ccc1OCC(=O)NC(C)(C)C [CBK266429],86.667
17,CN(C)CCCNC(=S)NCc1ccc(Cl)cc1 [CBK266910],114.027
18,CN1CCC(N2CCN(C(=O)NCCOc3ccccc3)CC2)CC1 [CBK156098],132.19
19,CS(=O)(=O)c1ccc(-c2ccc(C(=O)N3CCN(C(=O)OCc4ccccc4)CC3)cn2)cc1 [CBK160189],68.5186
20,Clc1ccc(-c2csc(NCc3ccco3)n2)cc1 [CBK058168],97.7704
21,CCCc1[nH]nc(O)c1CCc1ccccc1 [CBK075083],114.93
22,Cc1c(F)cccc1CN1CCN(S(=O)(=O)c2ccc(C(=O)c3ccccc3)cc2)CC1 [CBK062929],101.407
23,CC(C)NC(=O)N[C@H]1CCN2C(=O)N(c3ccc(F)c(Cl)c3)C(=O)[C@@H]2C1 [CBK289540],108.719
24,O=C1NC2(CCC(=O)N(Cc3ccccc3)CC2)Oc2ccccc21 (centres unmarked) [CBK284438],72.1727
25,CCOc1ccccc1NC(=O)CC1Sc2ccc(C(F)(F)F)cc2NC1=O (centres unmarked) [CBK263659],84.3878
26,O=C(Nc1cccc(-c2nc3ncccc3o2)c1)c1cccnc1Cl [CBK058695],90.0085
27,Cc1ccc(-c2csc3ncnc(SCc4nc5ccccc5[nH]4)c23)cc1 [CBK267590],105.423

row,Structure (SMILES),% of control remaining
1,CCCCOC(=O)CCn1c(=S)oc2ccccc21 [CBK019181],68.6906
2,Cc1cccc(OCC2CCCN(C(=O)Cn3cc(C)cn3)C2)c1 (centres unmarked) [CBK281531],90.1799
3,Cc1c(C(C)NC(=O)C2C3CCC(O3)C2C(=O)O)cnn1C (centres unmarked) [CBK286887],77.98
4,COc1ccc(/C=C(\C)C(=O)Nc2cc3ccccc3c(N3CCNCC3)n2)cc1OC [CBK038937T],69.477
5,O=C(CC(C(=O)O)c1c[nH]c2ccccc12)c1ccc(Cl)cc1 (centres unmarked) [CBK286620],57.6586
6,CC(=O)Nc1c(C#N)cnn1C [CBK046332],42.2367
7,O=C(Nc1ccc2oc(-c3cccnc3)nc2c1)c1ccc(Br)o1 [CBK263436],72.4226
8,O=C(NCC1COc2ccccc2O1)c1cc(-c2ccc(Cl)cc2)cnc1N1CCOCC1 (centres unmarked) [CBK076286],106.93
9,COc1cc2c(cc1/C=C1/S/C(=N\c3ccccc3)N(CCCN3CCOCC3)C1=O)OCO2 [CBK265631],119.475
10,c1ccc(C(Oc2nccnc2-c2cccs2)c2ccccc2)cc1 [CBK107061],72.6708
11,c1ccc2cc(OCc3ccc(-c4nccnc4-c4nnn[nH]4)cc3)ccc2c1 [CBK050818],89.8986
12,c1ccc(SCCN2CCOCC2)cc1 [CBK027679],104.155
13,O=C(C1=C(O)C(=O)N(CCCN2CCOCC2)C1c1cccnc1)c1cc2ccccc2o1 (centres unmarked) [CBK266147],100.545
14,CC(=O)c1ccc(N2CCN(Cc3cc(C(C)(C)C)c(O)c(C(C)(C)C)c3)CC2)cc1 [CBK261749],94.558
15,CN1CCC(N(CCO)CC2(c3ccc(Cl)cc3)CC2)CC1 [CBK282781],100.76
16,CC(C)Nc1cncc(Sc2ccccc2N)n1 [CBK093726],81.115
17,CCn1cc(-c2cncn2CCn2nc(C)c(Cl)c2C)cn1 [CBK281708],93.1329
18,N/C(CSc1cccc2c1CCCC2)=N\O [CBK006787C],70.6608
19,Clc1ccc(-c2nc(C3CCN(CCc4ccccc4)CC3)n3ccccc23)cc1 [CBK035316],108.771
20,CN1CCN(c2nc(-c3ccc4c(c3)CCC(=O)N4)cs2)CC1 [CBK304319C],52.4198
21,COc1ccc2cc(Cn3nc(C(=O)O)c4ccccc4c3=O)c(Cl)nc2c1 [CBK295354],118.6
22,O=C(C1CCCC1)N1CCC(c2cccc(Cc3ccccc3Cl)n2)CC1 [CBK286507],72.5663
23,CCNC(=O)N1CCN(CCCC(O)c2ccc(F)cc2)CC1 (centres unmarked) [CBK025001C],49.6091
24,Cc1cc(S(=O)(=O)CC#N)c(C)cc1Cl [CBK018672],83.8214
25,COc1ccc(C(C)C)cc1S(=O)(=O)NCCN1CCOCC1 [CBK266538],81.209
26,Clc1ccc(CN2CCC(Oc3cncc(OCCN4CCOCC4)n3)C2)cc1 (centres unmarked) [CBK084480],80.6616
